Results as given in paper PMC4336329 (PLoS ONE, 2015).
Out of some 310,000 compounds screened, about 14,000 (4.5%) showed an effect of 50% or more. The effect is printed as a negative number. The list shows a part of the results.

What follows are compounds tested against human ether-à-go-go-related gene (hERG) potassium channel (human, UniProt Q12809) (assay: primary screen, population patch clamp on CHO cells stably expressing hERG).
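Further: peak tail current of the secondary pulse compared with the same well before compound.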

Chain of human ether-à-go-go-related gene (hERG) potassium channel (Q12809 whole entry, looked up): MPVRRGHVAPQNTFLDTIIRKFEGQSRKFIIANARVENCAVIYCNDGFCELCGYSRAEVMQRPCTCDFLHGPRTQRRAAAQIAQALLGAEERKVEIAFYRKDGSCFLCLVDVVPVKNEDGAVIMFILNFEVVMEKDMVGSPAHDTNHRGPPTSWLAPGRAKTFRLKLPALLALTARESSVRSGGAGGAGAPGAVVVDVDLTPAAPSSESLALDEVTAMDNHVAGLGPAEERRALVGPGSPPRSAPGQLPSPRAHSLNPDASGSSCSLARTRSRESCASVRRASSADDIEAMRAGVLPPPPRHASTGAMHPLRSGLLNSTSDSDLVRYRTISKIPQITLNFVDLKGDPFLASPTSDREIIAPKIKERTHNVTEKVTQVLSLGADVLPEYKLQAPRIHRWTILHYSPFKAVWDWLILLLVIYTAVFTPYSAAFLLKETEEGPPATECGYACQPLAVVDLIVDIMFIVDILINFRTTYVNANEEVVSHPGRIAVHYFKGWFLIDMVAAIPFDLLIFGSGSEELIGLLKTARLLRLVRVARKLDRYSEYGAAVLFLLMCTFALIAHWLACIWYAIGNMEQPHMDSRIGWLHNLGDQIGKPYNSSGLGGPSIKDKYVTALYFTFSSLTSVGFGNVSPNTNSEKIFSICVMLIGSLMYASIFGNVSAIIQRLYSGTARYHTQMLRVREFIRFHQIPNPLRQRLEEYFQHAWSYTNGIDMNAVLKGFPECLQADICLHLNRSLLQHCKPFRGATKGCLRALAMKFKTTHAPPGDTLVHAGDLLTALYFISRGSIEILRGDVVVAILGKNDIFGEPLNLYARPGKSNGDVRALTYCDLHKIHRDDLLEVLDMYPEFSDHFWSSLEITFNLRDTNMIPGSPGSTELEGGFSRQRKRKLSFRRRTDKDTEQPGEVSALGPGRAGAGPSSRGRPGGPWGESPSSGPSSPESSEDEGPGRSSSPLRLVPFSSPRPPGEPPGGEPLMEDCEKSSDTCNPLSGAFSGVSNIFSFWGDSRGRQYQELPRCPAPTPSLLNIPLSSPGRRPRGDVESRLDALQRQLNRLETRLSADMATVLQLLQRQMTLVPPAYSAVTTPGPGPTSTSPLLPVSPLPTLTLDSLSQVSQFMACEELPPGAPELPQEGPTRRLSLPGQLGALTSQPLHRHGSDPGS

SMILES | hERG current change (%, negative = inhibition) at 10uM
CCc1ccc(NC(=O)c2ccc(NC3=NC4CS(=O)(=O)CC4S3)cc2)cc1 (centres unmarked) | 5.74%
CCOC(=O)Nc1ccc2c(COC(=O)c3ccccc3O)cc(=O)oc2c1 | -11.6%
Cc1ccccc1/C=C/C(=O)NCC(=O)N1CCC(N(C)C2CCCCC2C)CC1 (centres unmarked) | -72.1%
COc1ccc(CCNC(=O)CCCCCNC(=O)N2CCn3c2nc2ccccc23)cc1OC | -13.8%
CN1CCCC(OC(=O)CCCC(=O)OC2CCCN(C)C2)C1.Cl (centres unmarked) | 2.1%
CS(=O)(=O)Nc1ccc(S(=O)(=O)NCCc2ccccc2)cc1 | -39%
CCOC(=O)C1=C(C)NC(=O)NC1c1c(O)ccc2ccccc12 (centres unmarked) | -3.79%
Cc1ccc(NC(=O)c2cccs2)cc1NC(=O)c1cccc(F)c1 | 5.36%
CCCn1ncc(CN2CCC(Oc3ccc(C(=O)N4CCCC4)cc3)CC2)c1C | -29.2%
CCOC(=O)c1c(C)oc2c1c(C(c1cccnc1)N1CCCCC1)c(O)c1ccccc12 (centres unmarked) | 0.873%
Nc1nc(SCC(=O)C23CC4CC(CC(C4)C2)C3)n[nH]1 | 3.17%
Cc1nn(C)c(C)c1S(=O)(=O)N1CCCC(C(=O)NCCc2ccc(Cl)cc2)C1 (centres unmarked) | -0.523%
COCCN(C(=O)CCN1C(=O)C2CC=CCC2C1=O)c1c(N)n(CC(C)C)c(=O)[nH]c1=O (centres unmarked) | 6.32%
CCCCCC(=O)N1CCCC1 | 16%
CCO[C@H]1OC(C(=O)N2CCCCCCC2)=C[C@@H](c2ccc(C(F)(F)F)cc2)[C@@H]1CCCO | -50.5%
NC1(C#Cc2ccc3oc(=O)c(-n4cc(-c5ccsc5)nn4)cc3c2)CCCCC1 | -2.85%
Cc1ccc(C(=O)NC(NC(=S)Nc2ccc(S(N)(=O)=O)cc2)C(Cl)(Cl)Cl)cc1 (centres unmarked) | -2.26%
N=c1c(S(=O)(=O)c2ccc(F)cc2)cc2c(=O)n3ccccc3nc2n1CC1CCCO1 (centres unmarked) | -40.8%
O=C(COC(=O)c1ccco1)NCc1ccc(Cl)cc1 | 4.21%
Nc1ccc(-c2nc3ccc(-c4nc5ccccc5o4)cc3[nH]2)cc1 | 11.7%
COc1cc(-c2nc(-c3ccccc3)c(-c3ccc(F)cc3)[nH]2)cc2c1OCO2 | 13.8%
O=S1(=O)CCC(NC(=S)N2CCCCC2)C1 (centres unmarked) | -16.4%

SMILES | hERG current change (%, negative = inhibition) at 10uM
O=C(COC(=O)C1C2CC3OC(=O)C1C3C2)Nc1cccc(C(F)(F)F)c1 (centres unmarked) | -17.6%
O=C(Cn1nc(-c2ccc(N3CCOCC3)c([N+](=O)[O-])c2)c2ccccc2c1=O)N1CCCCC1 | -68.2%
CCCCN(C(=O)CCSc1ccc(F)cc1)c1c(N)n(Cc2ccccc2)c(=O)[nH]c1=O | 5.9%
N#C/C(=C1/CCCN1)c1ccccn1 | 0.0836%
CCN(CC)C(=O)CSc1nc(-c2ccccc2)cc(=O)[nH]1 | 3.34%
Cn1c(CSc2ncccn2)nnc1SCC(=O)N1CCCc2ccccc21 | 2.95%
Cl.Fc1ccc(C(OCCN2CCN(CCCc3ccccc3)CC2)c2ccc(F)cc2)cc1 | -77.4%
Cc1nnc(N/N=C/c2c(Cl)cccc2Cl)n1N.Cl | 4.09%
CCc1cccc(CC)c1-n1c(SCc2cc(=O)n3ccsc3n2)nnc1-c1cccnc1 | -27.2%
C=CCN1C(=O)/C(=C\C(C)=C\c2ccccc2)SC1=S | 11.8%
Cc1ccc(/C=C2/Sc3ccc(C(=O)N4CCN(c5ccccn5)CC4)cc3NC2=O)cc1 | 2.67%
O=C(COC(=O)c1ccc(O)cc1)Nc1cc(C(F)(F)F)ccc1N1CCOCC1 | -25%
Cc1cc(C(=O)NN=C2CCCCC2)c2ccccc2n1 | -4.11%
COc1ccc(NC(=O)COc2ccccc2C(=O)NCC(c2ccccc2)N(C)C)cc1Cl (centres unmarked) | -31.2%
Cc1ccc(CN2CCCOCCS2(=O)=O)cc1 | 9.35%
O=C(NNS(=O)(=O)c1ccc(Cl)cc1)c1cc(-c2ccccc2)n[nH]1 | 3.29%
COc1cccc(C2N=C(c3ccccc3C)NO2)c1OC (centres unmarked) | 5.27%
Cn1c(SCC(=O)N2c3ccccc3Sc3ccc(Cl)cc32)nnc1-c1ccco1 | -48.9%
CCC(C)N=C1Sc2nc3ccc(C)cc3cc2CN1CCOC (centres unmarked) | -79%
O=c1oc2ccccc2c(NCc2ccccc2)c1[N+](=O)[O-] | -34%
CC(=O)Nc1ccc(N2C(=O)CCC2=O)cc1C | 18%
O=C(Nc1nc2ccccc2n1Cc1ccccc1)c1ccc(COc2ccccc2[N+](=O)[O-])o1 | -18.8%

SMILES | hERG current change (%, negative = inhibition) at 10uM
Cc1cc(CNC(=O)Nc2ccc3c(c2)OCO3)nn1C | -0.683%
CCOC(=O)c1ccc(NC(=O)c2nc[nH]c2C(=O)NCCCNC(=O)c2[nH]cnc2C(=O)Nc2ccc(C(=O)OCC)cc2)cc1 | 14.1%
C/C(=N\NC(N)=O)c1c(O)n(C)c(=O)n(C)c1=O | 15.8%
CCn1cnc2c1c(=O)[nH]c(=O)n2Cc1ccccc1 | 19%
COCC(=O)Nc1ccc(Br)cc1C | 8.8%
Cc1ccc(NC(=O)CN2C(=O)C(C)Oc3ccccc32)nc1 (centres unmarked) | 4.98%
O=C(CSc1nc2ccc([N+](=O)[O-])cc2[nH]1)NC1CCCCCC1 | -16.6%
CCCCNC(=O)c1onc(CSc2ccccc2C)c1C(=O)O | 13.8%
FC(F)(F)c1cc(-c2ccco2)nc(NCc2ccc(Cl)cc2)n1 | 6.88%
Cc1nc([N+](=O)[O-])cn1Cc1cccc([N+](=O)[O-])c1 | -8.42%
CC(C)NC(=O)NC(=O)COC(=O)Cc1c(F)cccc1Cl | -10.8%
COCC(=O)NNC(=S)Nc1cccc(C)c1C | 35.2%
CCCC(=O)Nc1ccc2c(c1)nc(CN1CCCC1)n2C | 11.7%
Cc1nn(Cc2noc(C(=O)NCc3ccccn3)n2)c(C)c1Br | -14.5%
CCc1ccc2c(c1)c1nc(C)sc1n2CC(=O)OC | 9.3%
Cc1ccc(CNC(=O)CSc2ccc(-c3cccs3)nn2)cc1 | 4.35%
CC(C)NS(=O)(=O)c1ccc(CCC(=O)N2CCCC2)cc1 | 11.1%
CN1/C(=C/C(=O)C2CC2)C(C)(C)c2ccccc21 | 15.7%
Cc1ccc(NC(=O)c2ccc(OCC3CCCO3)cc2)c(C)c1 (centres unmarked) | -9.65%
COc1ccc(CCN2C(=S)N(c3ccc(Cl)cc3)C(=O)C2CC(N)=O)cc1OC (centres unmarked) | 16%
CCn1c(SCC(=O)O)nnc1-c1cc2c(C)nn(-c3ccccc3)c2s1 | -0.708%
O=c1ccc(NS(=O)(=O)c2ccccc2)cn1Cc1ccc(Cl)c(Cl)c1 | -11.8%

SMILES | hERG current change (%, negative = inhibition) at 10uM
CCOC(=O)[C@H]1[C@H]2COc3ccc(Br)cc3[C@@H]2N2C(=O)CN(Cc3ccco3)C(=O)[C@@]12C | -38.7%
COc1ccc2c(c1)[C@H]1[C@H](CO2)[C@H](c2ccccc2)[C@]2(C)C(=O)N[C@@H](C)C(=O)N12 | 1.7%
COc1ccccc1NC(=O)COc1ccc(/C=N/NS(=O)(=O)c2ccc(C)cc2)cc1 | 20.1%
CCCn1c(=S)[nH]c2cc(C(=O)N3CCCC(C(=O)OCC)C3)ccc2c1=O (centres unmarked) | 5.19%
Cc1ccccc1OCCCn1cc(C(=O)C(=O)N2CCOCC2)c2ccccc21 | -10.6%
O=C(Nc1cccnc1)c1ccc(NC(=O)c2ccco2)cc1 | 4.84%
O=C1CSC(=S)N1/N=C/c1cc(Br)c(O)c(Br)c1 | 25.3%
O=C(c1ccc(Nc2cccc(C(F)(F)F)c2)nc1)N1CCCC1 | -20.3%
Cc1ccc(NC(=O)CN2C(=O)C3C4C=CC(C4)C3C2=O)cc1 (centres unmarked) | 10.7%
C#CCOc1ccc(/C=C2/C(=O)NN(c3ccc(F)cc3)C2=O)cc1OC | 2.13%
Cc1ccc(S(=O)(=O)Nc2ccncc2)c(C)c1N(C)S(=O)(=O)c1ccc(Cl)cc1 | -13.3%
O=C(c1noc2c1CCCC2)N1CCC(CO)(Cc2ccccc2Cl)CC1 | -22.9%
Cc1cc(C(=O)CCl)c(C)n1CCc1ccccc1 | -17.5%
O=C(Nc1ccc(N2CCOCC2)cc1)Nc1ccc(Cl)c(Cl)c1 | 15.4%
Cc1ccc(C(C)C)c(OCCN(C)C)c1.O=C(O)C(=O)O | -5.47%
O=c1cccc2n1Cc1cc3ccccc3nc1-2 | 11.1%
CC12CCC(=O)N1C(C(=O)Nc1cccc(S(=O)(=O)N3CCCCC3)c1)CS2 (centres unmarked) | -43.9%
CC(C)(C)c1ccc(C(=O)Nn2c(CCC(=O)O)ccc2-c2cccs2)cc1 | -4.16%
CS(=O)(=O)N1CCCC(C(=O)Nc2ccc(F)cc2F)C1 (centres unmarked) | 17.1%
O=C(CCc1nnc(COc2ccccc2)o1)NCc1ccc(Cl)s1 | 1.7%
